B1: chr5:145543945:145543946:-_ENSG00000133706_ENST00000545646|hu_hu|FALSE|FALSE (ssRNA)
RNA: GGGAGUUCUACAGUCCGACGAUCCUGAAUAGCCAGUGGCGGGAAAUAAUCAAGCCAAUGUUCUGCUUCAGAAAAUUUUACUAUCUCUUCAUCAGACAGGCCAAGGGAUUUCAUAAUGCCCCACUGGUAUUUAGAAGAUCCAGCCAACAGAGGAUUGAGCAUCA
B2: chr11:51934471:51934472:+_ENSMUSG00000020349_ENSMUST00000020608|perfect_dup|FALSE|FALSE (ssRNA)
RNA: GGGAGUUCUACAGUCCGACGAUCGAUUGCAGCUUGGUUACCACAACGAUAGCAAUAGUUUGGAGCACUGAAAAUUGUUACUACGUUCCGGUCAUGGCACCAGUUAUAUCCCUCCAUCACCAGCUGGUGAGCUCUGGACACCAACAACAGAGGAUUGAGCAUCA
B3: 129712606_129712726_1589_CDS_ENSMUSG00000001052_ENSMUST00000001079|mouse|control|control (ssRNA)
RNA: GGGAGUUCUACAGUCCGACGAUCGCUGGGAUGUGCUGCGGGCAUGGGUGGUGGUGCUGCGUUCUGAUAGGCAGGCUGCAGAGCUGGGUAGCCAUAGCCAAAAGGCUUUGCCACCUUGGCUGGCUGAGCUGCAGGGGGAGUGGGCAACAGAGGAUUGAGCAUCA
B4: chr5:121768680:121768681:+_ENSMUSG00000042744_ENSMUST00000119892|mus_mus|FALSE|FALSE (ssRNA)
RNA: GGGAGUUCUACAGUCCGACGAUCUUGGGCAGUUUUCUUCUUGUCACCUGUGGACAGCCCACUCACAGUCUCUGGGUUGAUGGAUUCCACUGGUGGUCCGACACUGACAAUGAGGCCCGACUGUGCCCACUUGGUUGCUUUCCUCAACAGAGGAUUGAGCAUCA
B5: chr2:134423880:134423881:-_ENSMUSG00000034723_ENSMUST00000038228|mus_mus|FALSE|FALSE (ssRNA)
RNA: GGGAGUUCUACAGUCCGACGAUCUUUCUAGCCUCAAGAGAGUGCUGGGGAGCUGUGGUACCUGAUGUUUCUGACCUGACUAAAACACAUGCUUAACAACGACGGCAAAGACUUCCUGCACUUUAAGGAUGCUCUGGUUUUGCUCAACAGAGGAUUGAGCAUCA
B6: chr12:109526192:109526193:-_ENSG00000189046_ENST00000429722|hu_hu|FALSE|FALSE (ssRNA)
RNA: GGGAGUUCUACAGUCCGACGAUCGUGGGCCAGCGGCAGCCUGACCACCGCCACCCUCCUGGAGGGGCUUUUCCCACGGGAAUCCUUAUGCCGGAAGACAAAGUCUCUGCAGGCACCGAAGGAGACAGAGGCAAUGGGGCUCCCCAACAGAGGAUUGAGCAUCA
B7: chr2:155973683:155973684:-_ENSMUSG00000027620_ENSMUST00000109587|mus_mus|FALSE|FALSE (ssRNA)
RNA: GGGAGUUCUACAGUCCGACGAUCCAUGGACAUUUAAAACAGCAGAACAAGAGAACAGCUUUGCAUAAAGUAGGAUUUGCUAGUUAGGGAUAAUGAGCACACUGCAUUCCUGUUAACAUUUUUAUUUUUCAAGGUAACAGGAGUCAACAGAGGAUUGAGCAUCA
B8: chr14:66974463:66974464:+_ENSMUSG00000022044_ENSMUST00000074523|mus_hu|mus_mus_mus_hu_False|28_78 (ssRNA)
RNA: GGGAGUUCUACAGUCCGACGAUCUUGUAGGACGACUUAUUCAGGGGAUCGGCCAGGAAGCAAGAGCAGAACAAGGACACCAGCGGGAGCUCCUUCAUCUUCUCUUUAUAGGCUGCAAGGGUCAUGUUUCUGGGAUCUGGUGGCCAACAGAGGAUUGAGCAUCA
B9: chr7:92085846:92085847:+_ENSG00000157259_ENST00000287957|hu_hu|FALSE|FALSE (ssRNA)
RNA: GGGAGUUCUACAGUCCGACGAUCGGGGCUACAGGCGUGAGCCACCACACCAGGCCUGGAAACCCAGUUUUAAUUUGUGAACUACAAAUGGUUGGCAACUGAUUCCUUAAUUGUUAUUGCAGGAGUAGGCCCAACAUGAGUCCACAACAGAGGAUUGAGCAUCA
B10: 48531223_48531343_1013_3pUTR_ENSMUSG00000023994_ENSMUST00000046719|mouse|control|control (ssRNA)
RNA: GGGAGUUCUACAGUCCGACGAUCCUUCUGCCUCUAGCUUAGCCCGUGCUUGUCUCCUCUUAAGGAUGCGGUGAUACUGUUUGGCAUUCACAUACAGGGGCUCUUCUUCCAGCAUCUCUGCUCCAGGUAAAGGGAUUCUUUGGACAACAGAGGAUUGAGCAUCA
B11: chr3:10015032:10015033:+_ENSMUSG00000027533_ENSMUST00000029046|mus_mus|mus_mus_mus_hu_True|58_108 (ssRNA)
RNA: GGGAGUUCUACAGUCCGACGAUCGUUGUUGCCAUCACAAGUGAUGAUACAAUCUGGCUUGGCCAUUGCGCCCAUUUUCCUAAGAGCUAUUCCCACUCCUAGCUCCUUCAUGUAUUCAUCAAAGCCUUUGCUGUCCACCAGGCGCAACAGAGGAUUGAGCAUCA
B12: chr9:51871721:51871722:+_ENSMUSG00000032050_ENSMUST00000163153|mus_hu|FALSE|FALSE (ssRNA)
RNA: GGGAGUUCUACAGUCCGACGAUCUGUUUUCACCACCUGGUCAAAAAGUUGUUUGCCAGUUGUAUUGGGCUGAAUGGCAAAUUCCAGCUCAGCAUCCAUUGUAGUUACUCUUACGUUGAUUGGUUUCGGCAUUUUCUUUCUCUUCAACAGAGGAUUGAGCAUCA
B13: chr20:42825305:42825306:-_ENSG00000132823_ENST00000255174|hu_mus|motif|central (ssRNA)
RNA: GGGAGUUCUACAGUCCGACGAUCUUAAACCAAAGACAGUUUAAAUGAGUCUCAUAAGCUCUACUAUUGAUGGGCUGGCAUCGGCAGCAUGACAAGUGUUCAAUUCAGUUACAAAUGCACAUUUGAGUUUCUUGCUGCCACAUCCAACAGAGGAUUGAGCAUCA
B14: 78383251_78383371_6022_CDS_ENSG00000149256_ENST00000278550|human|control|control (ssRNA)
RNA: GGGAGUUCUACAGUCCGACGAUCGAGGCUGGGCCGCCCCGCCUGGUCGUACAGAAUCCGAAGGGUGAACUUGCGGUGGUCAUCAUAGAUCUUCUCUGUGCGUGUUACGCGAUCAAAGUCCAGAGAUAGGAGAUUUCGGUUGUGCAACAGAGGAUUGAGCAUCA

This is one part of the list.

The target of this experiment is T1, UNK ZnF1-3 (human, UniProt Q9C0B0 31-174).
T1 sequence: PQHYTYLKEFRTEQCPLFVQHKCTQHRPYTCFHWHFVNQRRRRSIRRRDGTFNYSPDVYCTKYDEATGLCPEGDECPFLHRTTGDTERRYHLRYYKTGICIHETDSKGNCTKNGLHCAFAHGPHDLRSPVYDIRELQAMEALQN
In words: nsRBNS (natural sequence RNA bind-n-seq); RBNS binding buffer (assumed for nsRBNS): 25 mM Tris pH 7.5, 150 mM KCl, 3 mM MgCl2, 0.01% Triton X-100, 500 ug/ml BSA, 20 U/ml SUPERase-In, 4 C; UNK is unkempt and MSI1 is Musashi-1; names of the RNAs are library labels; protein concentration not given here; high values mean tight binding.
Consider B1, for which the binding signal is 1.44 enrichment R. B2 showed a binding signal of 1.24 enrichment R.

The molecule B3 showed a binding signal of 1.14 enrichment R. For B4 the value was 0.551 enrichment R.

Consider B5, for which the binding signal was 0.879 enrichment R. For the molecule B6, the binding signal came out at 0.878 enrichment R.

B7: the binding signal amounted to 1.54 enrichment R.

Regarding B8, the binding signal stood at 1.86 enrichment R. In turn, B9 had a binding signal of 1.51 enrichment R.

On to B10, for which the binding signal turned out to be 0.782 enrichment R. Next, B11: 0.525 enrichment R; B12: 0.41 enrichment R. Next, B13: 0.421 enrichment R; B14: 1.23 enrichment R.

For the origin of these results see article PMC12136788.
